Measured values as given in PubChem BioAssay AID686978 (National Center for Advancing Translational Sciences (NCATS), 2013).
About 64,000 (15%) of roughly 420,000 compounds were called active. The inconclusive results got no clear call from the source; some entries with a clear call stand among them for comparison. Calls follow the shape of the dose curve; as a rule, active = well fitted inhibition curve with a large enough effect; inconclusive = small, poorly fitted or top-dose-only effect; inactive = flat fitted curve, though single readings scatter. Potencies of inconclusive entries are left out as doubtful fits.
Potency is read from the fitted curve at half-maximal effect; tags tell the direction and shape of the fitted curve.

Assay: qHTS for Inhibitors of human tyrosyl-DNA phosphodiesterase 1 (TDP1): qHTS in cells in absence of CPT; also: nearly all actives have a fitted effect of over 55% in size
Settings: DT40 Tdp1-/- hTDP1 cells, no CPT, ATP luminescence, 48 h; series mostly up to 46.2 µM
Procedure, shortened: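 Luminescent ATP content (CellTiter-Glo) served as the growth readout. Knockout chicken DT40 cells expressing human TDP1 were exposed to compounds without camptothecin for a minimum 48 hr at 37 °C.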
For `CC1CN(C(=O)Nc2ccc(C(=O)NCc3ccccc3F)cc2)c2ccccc2S1` (stereo not drawn), the Potency was active: 14.6 µM. In the case of `Cc1nc2ncnn2c(N2CCCC(C(=O)Nc3ccccc3Br)C2)c1C` (stereo not drawn), the Potency is reported as active: 14.6 µM. In the case of `CCOc1ccc(C(C(=O)NCC2CCCO2)N(Cc2cccs2)C(=O)c2snc(C(N)=O)c2N)cc1` (stereo not drawn), the Potency is reported as active: 9.2 µM. In the case of `Cc1ccc(C)c(CN2CCC(CNC(=O)Nc3cccc(Cl)c3C)CC2)c1`, the Potency is reported as inconclusive [inhibitor, single point]. For `COC(=O)c1ccc(NC(=O)CSc2n[nH]c(-c3ccccc3)n2)cc1`, the Potency was inconclusive [inhibitor, single point]. For `COc1cccc(CNC(=O)c2ccc(CS(=O)Cc3ccccc3Cl)o2)c1` (stereo not drawn), the Potency was inconclusive [inhibitor, single point]. In the case of `O=C(O)CCN1C(=O)c2ccccc2Sc2ncccc21`, the Potency is reported as “inactive”. In the case of `COCCn1c(=NC(=O)CSC(C)=O)sc2cc(OC)ccc21`, the Potency is reported as inconclusive [inhibitor, single point]. With `CC1=CC(C)(C)N(C(=O)c2ccc(F)cc2)c2cc3c(cc21)OCO3` the Potency was inconclusive [inhibitor, partial curve]. With `Cc1ccc(S(=O)(=O)N2CCN(C(=O)COC(=O)CNC(=O)c3ccccc3F)CC2)c(C)c1` the Potency was “inactive”. For `Cc1ccccc1OCC(=O)Nc1ccc2oc(-c3ccc(F)cc3)nc2c1`, the Potency was “inactive”. For `CCOc1cccc2cc(-c3nnc(NCc4ccc5c(c4)OCO5)s3)c(=O)oc12`, the Potency was inconclusive [inhibitor, single point]. For `COc1cc(CN2CCC3(CC2)c2ccccc2[C@@H](NC(=O)c2ccccc2OC)[C@@H]3O)ccc1F`, the Potency was active: 18.4 µM. With `COc1ccc(Oc2ccc(C(F)(F)F)cc2NC(=O)CC(CC(=O)O)c2ccccc2)cc1` (stereo not drawn) the Potency was “inactive”. For `Cc1ccc(C2(C)NC(=O)N(CC(=O)Nc3ccc4c(c3)CCC4)C2=O)cc1` (stereo not drawn), the Potency was “inactive”. In the case of `NNC(=O)c1csc(-c2ncc(C(F)(F)F)cc2Cl)n1`, the Potency is reported as “inactive”. In the case of `CC(C)CCNC(=S)Nc1ccc([N+](=O)[O-])cc1`, the Potency is reported as inconclusive [inhibitor, single point]. For `Cc1cn(CC2COC(C)(C)O2)c(=O)[nH]c1=O` (stereo not drawn), the Potency was inconclusive [inhibitor, single point]. With `COc1ccccc1C(CC(=O)c1ccccc1)CC(=O)c1ccccc1` the Potency was inconclusive [inhibitor, single point]. With `Cc1ccc(N2CC(c3nnc(NC(=O)c4ccco4)s3)CC2=O)cc1C` (stereo not drawn) the Potency was “inactive”. With `COCCCN1C(=O)c2[nH]nc(-c3cc(C)cc(C)c3O)c2C1c1ccc(O)c(OC)c1` (stereo not drawn) the Potency was inconclusive [inhibitor, single point]. In the case of `CN(C)CC(CCC(CN(C)C)C(O)(c1ccccc1)c1ccccc1)C(O)(c1ccccc1)c1ccccc1` (stereo not drawn), the Potency is reported as active: 18.4 µM. For `N#Cc1nc(-c2ccccc2Cl)oc1N1CCOCC1`, the Potency was inconclusive [inhibitor, partial curve]. In the case of `COc1ccc2nc(Nc3nc(-c4ccncc4)cs3)sc2c1`, the Potency is reported as inconclusive [inhibitor, partial curve]. In the case of `O=C1NC(Cc2ccc(O)cc2)c2nc3ccc(F)cc3c(=O)n2-c2ncccc21` (stereo not drawn), the Potency is reported as inconclusive [inhibitor, single point]. For `COc1ccc(-n2cc(C(=O)NC(C)c3ccccc3)c3ccccc3c2=O)cc1` (stereo not drawn), the Potency was inconclusive [inhibitor, single point]. With `Cc1ccccc1C(=O)Nc1ccc2nc3n(c(=O)c2c1)CCC3` the Potency was “inactive”. In the case of `O=C(NC1CCCC1)c1ccc(CSc2nc3ccncc3n2Cc2ccc(F)cc2)cc1`, the Potency is reported as active: 16.4 µM. With `N#CCC(=O)Nc1ccc(C(=O)OC(C(=O)Nc2ccc([N+](=O)[O-])cc2Br)c2ccccc2)cc1` (stereo not drawn) the Potency was inconclusive [inhibitor, single point]. For `CCOC(=O)c1ccc(-c2c(C(=O)OCC)oc3cc(O)c(CC)cc3c2=O)o1`, the Potency was active: 11.6 µM. For `CC(C)C[C@H]1CN([C@@H](CC(C)C)CN2CCC[C@@H]2CN2C(=O)C(=O)NC[C@@H]2Cc2ccccc2)C(=O)C(=O)N1CCc1ccccc1`, the Potency was active: 16.4 µM. With `Cc1n[nH]c(=S)n1/N=C/c1ccc(-c2ccccc2[N+](=O)[O-])o1` the Potency was inconclusive [inhibitor, single point]. For `CC(NC(=O)c1ccc(N(C)C)c([N+](=O)[O-])c1)c1ccc(-n2ccnc2)cc1` (stereo not drawn), the Potency was inconclusive [inhibitor, single point]. For `COC(=O)C1=C(C(=O)OC)[C@@H]2N(C)c3ccccc3[C@@]23C[C@@H](C(=O)OC)N(C(=O)COCc2ccccc2)C3=N1`, the Potency was inconclusive [inhibitor, single point]. In the case of `CSc1nc(Cl)c(Cc2ccc(OC(C)C)cc2)c(N(C)C)n1`, the Potency is reported as active: 16.4 µM. For `COc1ccc(S(=O)(=O)N2CCCC(N(C)CCc3ccccc3)C2)cc1OC` (stereo not drawn), the Potency was inconclusive [inhibitor, single point]. For `COC(=O)[C@]12CCCCC=C1N(CCc1ccc(OC)c(OC)c1)C(=O)[C@H](CC(=O)NCCC(C)C)C2`, the Potency was inconclusive [inhibitor, single point]. For `CC1(C)CC(CCN)(Cc2ccccc2Cl)CCO1` (stereo not drawn), the Potency was inconclusive [inhibitor, single point]. For `O=C(Nc1ccc(NC(=O)c2ccco2)nc1)c1ccccn1`, the Potency was inconclusive [inhibitor, partial curve, poor fit]. With `Cc1sc2ncn(CC(=O)N3CCN(c4ccccc4)CC3)c(=O)c2c1S(=O)(=O)N1CCOCC1` the Potency was inconclusive [inhibitor, single point]. In the case of `O=C(Nc1nc2c(s1)CCCC2)c1cc(-c2ccccc2)nc2ccccc12`, the Potency is reported as inconclusive [inhibitor, single point]. In the case of `Nc1nnnn1/N=C/c1cccs1`, the Potency is reported as “inactive”. With `COc1ccc2c(c1)NC(=O)CC(c1ccccc1)=N2` the Potency was inconclusive [inhibitor, partial curve].
